Experiment in all cases: Primary Screen for Target Class Profiling of Small Molecule Inhibitors of Methyltransferases
Assay [1] deals with Glycine N-methyltransferase (Homo sapiens) (UniProt Q14749). The note with it: purified enzyme, MTase-Glo SAH luminescence; measured here: GNMT inhibition; at 40 µM; stronger effect = lower value. In short, it runs like this:
(§1)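 Each enzyme was assayed with SAM and its substrate. SAH formation detected by MTase-Glo luminescence; single-point 40 uM screen[…].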

For assay [2], the target named is Guanidinoacetate N-methyltransferase (Homo sapiens) (UniProt Q14353). The conditions noted are these: purified enzyme, MTase-Glo SAH luminescence; measured here: GAMT inhibition; at 40 µM; stronger effect = lower value. A digest of the protocol:
as §1

The target of assay [3] is Histamine N-methyltransferase (Homo sapiens) (UniProt P50135). The conditions noted are these: purified enzyme, MTase-Glo SAH luminescence; measured here: HNMT inhibition; at 40 µM; stronger effect = lower value. In short, it runs like this:
as §1

For assay [4], the target named is Nicotinamide N-methyltransferase (Homo sapiens) (UniProt P40261). The note with it: purified enzyme, MTase-Glo SAH luminescence; measured here: NNMT inhibition; at 40 µM; stronger effect = lower value. In short, it runs like this:
as §1

The target of assay [5] is Phenylethanolamine N-methyltransferase (Homo sapiens) (UniProt P11086). The note with it: purified enzyme, MTase-Glo SAH luminescence; measured here: PNMT inhibition; at 40 µM; stronger effect = lower value. In short, it runs like this: as §1

Values joined by “and” are separate entries in the source; they are usually repeats but may differ in a detail not shown here. Identical values can stand only once. This is one part of the list. Further columns of the screen follow, without active or inactive calls.
% is scaled to controls: 0 for no effect and ±100 for the full control effect.

For the compound `CC(C)CN(Cc1cccnc1)C1CN(C(=O)CCc2nc3ccccc3s2)C1`, the activity change, negative = inhibition in assay [1] is -7.26%; in assay [2] it was -3.55%; in assay [3] it was -3.03%; in assay [4], -12.1%; in assay [5], 9.2%.
Take `CC(C)NC(=O)Cn1nc2n(Cc3ccccc3)c(=O)c3ccc(C(=O)NC4CCCC4)cc3n2c1=O`: the activity change, negative = inhibition is 0.062% in assay [1]; 0.118% in assay [2]; 1.24% in assay [3]; -0.914% in assay [4]; -3.27% in assay [5].
Take `CC1(C)CCCC2(C)C1C(O)C=C(CO)C2(O)CO` (stereo not drawn): the activity change, negative = inhibition in assay [1] was 0%; in assay [2] it was 7.66%; in assay [3], 9.41%; in assay [4], -5.94%; in assay [5], 3.59%.
For `C=Cc1ccc(Cn2nc3n(CCCOC(C)C)c(=O)c4ccccc4n3c2=O)cc1` the same measures were 2.23%, 0%, 7.85%, -2.69% and 4.58%.
For `CCC(C)NC(=O)c1ccc2c(=O)n(C)c3nnc(SCC(=O)Nc4cccc(Cl)c4)n3c2c1` (stereo not drawn) the same measures were -0.128%, 1.31%, -3.28%, -8.08% and -0.163%.
Consider `O=C(NCCc1c[nH]c2ccc(O)cc12)c1ccc2ccccc2c1O`, for which the figures for the activity change, negative = inhibition in assay [2], in assay [4] and in assay [5] were 7.97%, -3.5% and -1.34%, respectively.
Consider `CCOC(=O)C1=C(N)Oc2ccc(Br)cc2C1C(C#N)C(=O)OCC` (stereo not drawn), for which the activity change, negative = inhibition in assay [1] was -2.11% and -0.551%; in assay [2] it was -0.152% and 4.79%; in assay [3] it was 7.6% and 2.7%; in assay [4] it was -14% and -14.9%; in assay [5], 0.122% and -3.15%.
Consider `CC1(C(=O)NC2CCCC2)Cn2c(ccc2-c2ccccc2)C(=O)N1CCC1=CCCCC1` (stereo not drawn), for which the activity change, negative = inhibition was found to be 3.81% in assay [1]; 0% in assay [2]; 3.47% in assay [3]; 0.849% in assay [4]; 2.32% in assay [5].
The corresponding values for `CCCn1c(=O)c2ccc(C(=O)NC3CCCC3)cc2n2c(=O)n(CC(=O)NCc3ccc(C)cc3)nc12` are 4.15%, 3.44%, 5.29%, 9.44% and 8.33%.
Consider `COc1ccc(CN2C(=O)c3cc4ccccc4n3CC2(C)C(=O)NC2CCCC2)cc1` (stereo not drawn), for which the activity change, negative = inhibition in assay [1] was -4.84%; in assay [2] it was 1.33%; in assay [3], -1.89%; in assay [4], -12.5%; in assay [5], 1.12%.
For `CCN1c2cc(C(=O)NCCc3ccccc3)ccc2C(=O)N2CCCCC21` (stereo not drawn) the same measures were -17.9%, -0.323%, -16%, -9.43% and -5.29%.
Consider `O=C(N[C@H]1CCN2C(=O)N(c3cccc(C(F)(F)F)c3)C(=O)[C@@H]2C1)c1ccncc1`, for which the activity change, negative = inhibition is -12.5% in assay [1]; -7.29% in assay [2]; -3.99% in assay [3]; -10.1% in assay [4]; -6.12% in assay [5].
`CN(C)CCO[C@H]1C[C@@H](O)C12CCN(C(=O)Cc1ccc3ccccc3c1)CC2`: the activity change, negative = inhibition in assay [1] was -5.55%; in assay [2] it was -10.1%; in assay [3] it was -15.3%; in assay [4] it was -10.4%; in assay [5], -11.5%.
In the case of `CC(C)N(C(=O)Cn1c(=O)oc2cc(S(=O)(=O)N3CCCCC3)ccc21)C1CCCCC1`, the activity change, negative = inhibition in assay [1] was 2.51%; in assay [2], 3.89%; in assay [3], 3.69%; in assay [4] it was -3.13%; in assay [5], -2.47%.
The corresponding values for `NC1(Cc2ccc(Cl)cc2)CCN(c2ncnc3[nH]ccc23)CC1` are 1.73%, 6.41%, -74.1%, -31.2% and -23.3%.
`COC(=O)CNC(=O)c1nc(-c2ccc(Cl)cc2)c2ccccn12`: the activity change, negative = inhibition in assay [1] was -10.1%; in assay [2], -10.3%; in assay [3], -8.61%; in assay [4], -15.7%; in assay [5] it was -14.4%.
`CCn1nc(C(=O)N2C[C@@H](CN3CCN(C)CC3)[C@@H](CO)C2)cc1C`: the activity change, negative = inhibition in assay [1] was 1.54%; in assay [2], 2.81%; in assay [3], 1.49%; in assay [4] it was -5.05%; in assay [5], 15.1%.
`Cc1ccc(CCNC(=O)C2CCN(c3cc(C(F)(F)F)ncn3)CC2)cc1`: the activity change, negative = inhibition is -5.72% in assay [1]; -4.6% in assay [2]; -0.949% in assay [3]; -8.07% in assay [4]; -1.41% in assay [5].
The corresponding values for `COc1ccc2cc3c(NC(=O)c4ccco4)nn(C)c3nc2c1` are -17.9%, 14.9%, -11.1%, -16.1% and -8.18%.
`Cc1ccc(CCNC(=O)c2cc3n(n2)CC(C)(C(=O)NCc2ccc(C)cc2)N(C)C3=O)cc1` (stereo not drawn): the activity change, negative = inhibition in assay [1] is 0.668%; in assay [2], 2.77%; in assay [3], -2.72%; in assay [4], 0.097%; in assay [5], -0.965%.
In the case of `CCC(C)C(=O)OC12C(OC(C)=O)C(C)C3(O)C(C=C(CO)CC4(O)C(=O)C(C)=CC43)C1C2(C)C` (stereo not drawn), the activity change, negative = inhibition was -0.066% in assay [1]; -8.9% in assay [2]; -1.5% in assay [3]; -20.7% in assay [4]; -1.08% in assay [5].
On to `CC(C)c1noc([C@@H]2Cc3nc[nH]c3CN2C(=O)CC(C)(C)CC(=O)O)n1`, for which the activity change, negative = inhibition in assay [1] was -2.31%; in assay [2], 0.441%; in assay [3] it was 0.501%; in assay [4], -3.18%; in assay [5] it was -3.62%.
For `CCCn1c(=O)c2ccc(C(=O)NC(C)C)cc2n2c(=O)n(Cc3ccccc3Cl)nc12`, the activity change, negative = inhibition is 2.04% in assay [1]; 0% in assay [2]; 5.18% in assay [3]; -5.71% in assay [4]; 2.8% in assay [5].
For `CC(=O)N1CCc2sc(C(=O)NC3CCN(Cc4ccccc4)CC3)cc2C1` the same measures were -5.13%, -5.15%, -24.6%, -11.2% and 10.3%.
For `CC(C)N1Cc2cc(C(=O)NC3CCN(Cc4ccccc4)CC3)sc2C1` the same measures were -13.1%, -8.78%, -21.4%, -14.9% and -11.1%.
As for `CN(CCCNC(=O)Cn1ccc2cc(S(=O)(=O)N3CCCCC3)ccc21)C1CCCCC1`, the activity change, negative = inhibition in assay [1] was -3.27%; in assay [2], -1.65%; in assay [3], -33.7%; in assay [4] it was -7.92%; in assay [5] it was -4.37%.
The corresponding values for `CC1(C(=O)NCc2ccccc2Cl)Cn2cnc(C(=O)NCCCc3ccccc3)c2C(=O)N1C1CC1` (stereo not drawn) are -5.12%, 0.265%, 1.39%, -3.66% and 0.924%.
The corresponding values for `CCCn1c(=O)c2ccc(C(=O)NCC(C)C)cc2n2c(=O)n(CC(=O)Nc3ccc(F)cc3)nc12` are 4.26%, 0%, 4.98%, 6.25% and 5.37%.
The corresponding values for `CC(C)(C)OC(=O)N1CC(NCc2cccc(F)c2F)C1` are -4.46%, -4.54%, -0.612%, -13.3% and -11%.
On to `COc1ccc(-c2ccc3c(N4CCOCC4C)nc(N4CCOCC4C)nc3n2)cc1CO` (stereo not drawn), for which the activity change, negative = inhibition was -5.66% in assay [1]; 4.29% in assay [2]; 4.57% in assay [3]; -35.2% in assay [4]; -25.1% in assay [5].
The corresponding values for `CC(C)C(=O)OC[C@H]1O[C@H](O[C@H]2O[C@H](CO)[C@@H](O)[C@H](O)[C@H]2O)[C@H](O)[C@@H](O)[C@@H]1O` are 1.27%, 1.96%, 9.55%, -13.1% and -7.69%.
